Consider 67 molecules from the supplement of paper PMC4723716.

SMILES strings stand for the structures. ± gives the uncertainty stated by the source. The full ranking holds about 9,900 compounds; the median of “viability index relative to DMSO control” is about 1, and the lowest 2% start at about 0.85. This is one part of the list.

This assay relates to Plasmodium falciparum NF54 stage V gametocytes. The assay is described as follows: viability index relative to DMSO control (fraction); higher = less gametocyte killing. The following applies: 2.5 µM, incubation time: 72 h. In outline: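 In 1,536-well plates, 10 µl of serum-free medium holding P. falciparum NF54 stage V gametocytes (0.75% gametocytemia, 1.25% hematocrit) received compound at 2.5 µM for 72 hr at 37°C in low oxygen. After one to two hours with 3 µl of 2.5 µM MitoTracker Red CMXRos containing 0.13% saponin, red particles of 20–70 µm2 were counted in a single field per well. Viability index is reported as the particle count over the plate mean of wells treated with solvent only.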

[1] abbreviates: library set: Broad Institute DOS.

Turning to `COc1ccccc1-c1cccc(-c2nc(C(=O)N3CCN(C)CC3)cc3c2[C@H](CCO)N([S@@](=O)C(C)(C)C)C3)c1`, under setting [1], the viability index was found to be 1.03 ± 0.032.
On the same count and under the same terms, under `OC[C@H]1[C@H](c2ccc(-c3cccnc3)cc2)[C@H]2CN(Cc3ccccn3)CCCCN21` stands 0.854 ± 0.029; under `O=C(C1CC1)N1C[C@@H]2[C@H](c3ccccc31)[C@@H](CO)N2C(=O)c1ccccc1`, 1 ± 0.02.
In the case of `C[C@@H]1CCCCO[C@H](CN(C)S(=O)(=O)c2ccc(Cl)cc2)[C@H](C)CN([C@@H](C)CO)C(=O)c2cc(NC(=O)Nc3ccc(C(F)(F)F)cc3)ccc2O1`, the viability index under setting [1] turned out to be 1.01 ± 0.1.
Still for that read-out and setting: the figure for `O=C(C[C@@H]1CC[C@H](NC(=O)C2CCOCC2)[C@H](CO)O1)NCC1CCCCC1` is 1.11 ± 0.079; for `CC(=O)N1[C@H](CO)[C@@H](c2ccc(-c3ccc(C#N)cc3)cc2)C12CN(C(=O)C1CC1)C2` it is 1.14 ± 0.045; for `COc1cccc(-c2ccc([C@H]3[C@H](CO)N4C(=O)CN(C(=O)c5cccnc5)C[C@@H]34)cc2)c1` it is 0.984 ± 0.052.
Same read-out and setting: the figure for `Cc1ccccc1S(=O)(=O)N1C[C@@H](O)COC[C@@H]2O[C@H](CC(=O)N3CCCCC3)CC[C@H]21` is 1 ± 0.013.
The same measure, in the same setting: the figure for `C/C=C/c1ccc2n(c1=O)C[C@@H]1[C@@H](CO)[C@H](C(=O)NCc3ccccc3Cl)N(S(C)(=O)=O)[C@H]21.C/C=C\c1ccc2n(c1=O)C[C@@H]1[C@@H](CO)[C@H](C(=O)NCc3ccccc3Cl)N(S(C)(=O)=O)[C@H]21` is 0.977 ± 0.041.
In turn, `O=C(C[C@@H]1C[C@H]2c3cc(NC(=O)c4ccc5c(c4)OCO5)ccc3O[C@H]2[C@@H](CO)O1)NCCN1CCCCC1` returned a viability index under setting [1] of 1.1 ± 0.05.
Under setting [1], `CN1C(=O)c2cc(NC(=O)Cc3cccs3)ccc2OC[C@H]2O[C@H](CC(=O)NCCc3ccncc3)CC[C@@H]21` displayed a viability index of 1.1 ± 0.097.
The same measure, in the same setting: the figure for `O=C(Nc1ccc(F)cc1)N1C[C@@H]2[C@H](c3ccccc31)[C@H](CO)N2C(=O)c1ccncc1` is 0.998 ± 0.073.
In the case of `Cc1ccccc1S(=O)(=O)N1CC(=O)N2[C@H](CO)[C@H](c3ccc(C#CCC4CCCC4)cc3)[C@H]2C1`, for the setting “library set: Broad Institute Blood Stage”, the viability index came out at 0.918 ± 0.054.
`CN1CCN(C(=O)c2cc3c(c(-c4cccc(Br)c4)n2)[C@@H](CCO)N([S@](=O)C(C)(C)C)C3)CC1` came in with a viability index under setting [1] of 1.08 ± 0.019.
With `COc1ccc2c3c([C@H](CO)N(CC4CC4)C[C@]33CCN(CC3)C(=O)c3cccc(F)c3)n(C)c2c1`, the viability index under setting [1] was 0.994 ± 0.068.
Under setting [1], `CCCNC(=O)N1[C@H](C#N)[C@@H](c2ccccc2-c2ccccc2F)[C@@H]1CO` returned a viability index of 1.06 ± 0.018.
The same measure, in the same setting: under `O=C(c1cccnc1)N1CC(=O)N2[C@H](C1)[C@H](c1ccc(-c3ccccc3F)cc1)[C@@H]2CO` stands 1.05 ± 0.047.
Same read-out and setting: under `CN(C)CC(=O)N1CC(=O)N2[C@H](C1)[C@@H](c1ccc(C#Cc3cccnc3)cc1)[C@@H]2CO` stands 1.04 ± 0.062; under `CCS(=O)(=O)Nc1ccc2c(c1)C(=O)N(C)[C@@H]1CC[C@@H](CC(=O)NCc3ccc(OC)cc3)O[C@@H]1CO2`, 1.015 ± 0.01.
Same read-out and setting: the figure for `C[C@H]1C/C=C/C[C@@H](c2ccc(F)cc2)NC(=O)[C@H](Cc2ccccc2)N(C)C(=O)c2ccccc2O1.C[C@H]1C/C=C\C[C@@H](c2ccc(F)cc2)NC(=O)[C@H](Cc2ccccc2)N(C)C(=O)c2ccccc2O1` is 1 ± 0.017; for `O=C(C[C@@H]1CC[C@@H]2[C@H](COC[C@H](O)CN2S(=O)(=O)c2cccc(Cl)c2)O1)N1CCOCC1` it is 1.04 ± 0.092.
Take `O=C(Nc1cccc(Cl)c1)N[C@@H]1CC[C@H](CCn2cc(Cc3ccccc3)nn2)O[C@@H]1CO`: the viability index under setting [1] was 1.162 ± 0.0056.
The molecule `CCCC(=O)Nc1ccc2c(c1)C(=O)N(C)C[C@H](OC)[C@@H](C)CN(C(=O)c1ccccn1)[C@H](C)CO2` came in with a viability index under setting [1] of 0.994 ± 0.035.
Same read-out and setting: under `C[C@@H]1CN([C@H](C)CO)C(=O)Cc2cc(N(C)C)ccc2O[C@H]1CN(C)C(=O)NC1CCCCC1` stands 0.993 ± 0.12.
On the same count and under the same terms, under `Cc1noc(C)c1NC(=O)N1C[C@@H](O)COC[C@@H]2O[C@@H](CC(=O)N[C@@H]3CCN(Cc4ccccc4)C3)CC[C@H]21` stands 1.04 ± 0.021.
Still for that read-out and setting: under `COc1ccc2c3c([C@H](CO)N(C[C@]33CCN(CC3)C(=O)Nc3ccccc3F)C(C)=O)n(C)c2c1` stands 0.994 ± 0.067; under `C[C@H]1CCCCO[C@H](CN(C)S(C)(=O)=O)[C@@H](C)CN([C@@H](C)CO)C(=O)c2cc(NC(=O)NC3CCCCC3)ccc2O1`, 1.14 ± 0.055; under `Cc1noc(C)c1NC(=O)N(C)C[C@H]1Oc2cc(C#CCN(C)C)ccc2S(=O)(=O)N([C@H](C)CO)C[C@H]1C`, 1.02 ± 0.083.
With `CO[C@@H]1CN(C)C(=O)c2cc(NC(=O)c3ccc(F)cc3)ccc2OC[C@H](C)N(C(=O)CC2CC2)C[C@H]1C`, the viability index under setting [1] worked out at 1.112 ± 0.0054.
The same measure, in the same setting: the figure for `CN1C[C@@H](O)COC[C@@H]2O[C@H](CC(=O)NC3CCCC3)CC[C@H]21` is 1.073 ± 0.0037; for `CC(C)NC(=O)N1CC(=O)N2[C@@H](CO)[C@H](c3ccc(/C=C/c4ccccc4)cc3)[C@@H]2C1` it is 0.951 ± 0.03.
Molecule `CC(C)C#Cc1ccc([C@H]2[C@@H](CO)N3C(=O)CN(C(=O)Cc4ccccc4)C[C@H]23)cc1` yielded a viability index under setting [1] of 0.848 ± 0.025.
On the same count and under the same terms, the figure for `COc1cccc(C(=O)Nc2ccc3c(c2)C(=O)N(C)C[C@@H](OC)[C@H](C)CN(C(=O)C2CC2)[C@H](C)CO3)c1` is 1.061 ± 0.0025; for `C/C=C/c1ccc([C@H]2[C@@H](CO)N(C(=O)C3CCCC3)C23CN(S(C)(=O)=O)C3)cc1` it is 1.058 ± 0.0091.
Same read-out and setting: under `C[C@@H]1CCCCO[C@@H](CN(C)Cc2ccncc2)[C@H](C)CN([C@H](C)CO)C(=O)c2cc(NC(=O)Cc3ccccc3)ccc2O1` stands 1.06 ± 0.043; under `CNC[C@@H]1Oc2ccc(NC(=O)CCC(F)(F)F)cc2C(=O)N([C@@H](C)CO)C[C@H]1C`, 1.02 ± 0.044.
On the same count and under the same terms, under `CCC(=O)Nc1ccc2c(c1)OC[C@H](C)N(Cc1ccccc1)C[C@@H](C)[C@H](OC)CN(C)C2=O` stands 1.01 ± 0.029.
As to `CNC[C@H]1OCc2cn(nn2)CCCC(=O)N([C@H](C)CO)C[C@H]1C`, the viability index under setting [1] was 1.01 ± 0.029.
Still for that read-out and setting: the figure for `O=C(Nc1ccccc1)N1CC(=O)N2[C@H](CO)[C@H](c3ccc(C#CC4CCCCC4)cc3)[C@@H]2C1` is 0.96 ± 0.031.
On the same count and under the same terms, the figure for `O=C(Nc1ccc(C(F)(F)F)cc1)Nc1ccc2c(c1)[C@H]1C[C@@H](CC(=O)N3CCc4ccccc4C3)O[C@H](CO)[C@H]1O2` is 0.981 ± 0.027; for `CCCNC(=O)N1CC2(C1)[C@H](c1ccccc1)[C@H](CO)N2Cc1ccc(Cl)cc1` it is 1.099 ± 0.007.
Still for that read-out and setting: under `COCC(=O)Nc1ccc2c(c1)C(=O)N(C)[C@H]1CC[C@@H](CC(=O)NC3Cc4ccccc4C3)O[C@H]1CO2` stands 1.14 ± 0.066.
Regarding `COc1cccc(-c2ccc3n(c2=O)C[C@@H]2[C@@H](CO)[C@H](C(=O)N(C)C)[C@H]3N2C(=O)c2ccccn2)c1`, under setting [1], the viability index came to 1.04 ± 0.017.
`O=C(C[C@@H]1CC[C@H]2[C@@H](COC[C@H](O)CN2C(=O)c2cnccn2)O1)N1CCN(c2ccccc2)CC1` had a viability index under setting [1] of 1.1 ± 0.064.
Same read-out and setting: under `O=C(Nc1ccccc1F)N1CC(=O)N2[C@H](CO)[C@@H](c3ccc(-c4cccnc4)cc3)[C@@H]2C1` stands 1.08 ± 0.04; under `Cc1ccc(S(=O)(=O)N2[C@@H]3CNC[C@H]2[C@@H]3c2ccc(/C=C/c3ccccc3)cc2)cc1`, 0.965 ± 0.038; under `C[C@@H]1CCCCO[C@H](CN(C)C(=O)Cc2ccccc2)[C@@H](C)CN([C@@H](C)CO)C(=O)c2cc(NS(C)(=O)=O)ccc2O1`, 1.08 ± 0.026.
On the same count and under the same terms, under `COc1ccc(S(=O)(=O)Nc2ccc3c(c2)C(=O)N([C@@H](C)CO)C[C@@H](C)[C@@H](CN(C)Cc2ccc(C(F)(F)F)cc2)OCCCC[C@@H](C)O3)cc1` stands 0.987 ± 0.0063; under `O=C(NC[C@H]1N[C@@H](CO)[C@H]1c1ccc(-c2ccccc2F)cc1)c1ccccn1`, 1.02 ± 0.058; under `O=C(NC[C@H]1N[C@H](CO)[C@H]1c1ccccc1)c1ccccc1F`, 1.08 ± 0.025.
On the same count and under the same terms, the figure for `C/C=C/c1ccc2c(c1)O[C@H](CN(C)C(=O)Nc1ccc(OC)cc1)[C@H](C)CN([C@H](C)CO)S2(=O)=O` is 1.056 ± 0.0059; for `COc1ccc2c3c([C@H](CO)N(C[C@]33CCN(Cc4ccncc4)CC3)C(=O)CN3CCOCC3)n(C)c2c1` it is 0.909 ± 0.014; for `O=C(C[C@@H]1CC[C@@H]2[C@H](COC[C@@H](O)CN2C(=O)Nc2cc(Cl)cc(Cl)c2)O1)N1CCOCC1` it is 1.09 ± 0.095.
Molecule `COC(=O)C[C@@H]1C[C@@H]2c3cc(NC(=O)c4ccc5c(c4)OCO5)ccc3O[C@@H]2[C@@H](CO)O1` registered a viability index under setting [1] of 1.06 ± 0.029.
On the same count and under the same terms, under `C/C=C/c1ccc([C@H]2[C@H]3CNC[C@@H]2N3Cc2ccc(OC)cc2)cc1` stands 1.05 ± 0.019; under `CCCNC(=O)C[C@H]1CC[C@H]2[C@H](COc3ccc(NC(=O)CC)cc3C(=O)N2C)O1`, 1.11 ± 0.06; under `O=C1NCCCOCc2cn(nn2)CC[C@@H]1Cc1ccc(-c2ccccc2)cc1`, 1.01 ± 0.036.
On the same count and under the same terms, the figure for `O=C(Cc1ccccn1)N1CC(=O)N2[C@H](CO)[C@H](c3ccc(C#CCC4CCCC4)cc3)[C@H]2C1` is 0.911 ± 0.098; for `CCCC(=O)Nc1ccc2c(c1)OC[C@H](C)N(S(=O)(=O)c1cn(C)cn1)C[C@@H](C)[C@H](OC)CN(C)C2=O` it is 1.07 ± 0.059.
The same measure, in the same setting: under `C[C@H](CO)N1C[C@H](C)[C@@H](CN(C)Cc2ccc(C(=O)Nc3ccccc3N)cc2)Oc2ccc(NC(=O)Cn3cnnn3)cc2C1=O` stands 0.976 ± 0.11; under `Cc1cccc(S(=O)(=O)N2CC[C@@H]3[C@H](CO)N(C)c4ccc(Br)cc4[C@@H]32)c1`, 1.09 ± 0.051.
Take `CCCNC(=O)Nc1ccc2c(c1)OC[C@H](C)N(Cc1cncnc1)C[C@@H](C)[C@H](OC)CN(C)C2=O`: under setting [1], the viability index stood at 0.989 ± 0.014.
On the same count and under the same terms, under `Cc1cccc(S(=O)(=O)N2CC[C@@H]3[C@@H](CO)Nc4ccc(-c5ccccc5F)cc4[C@@H]32)c1` stands 1.18 ± 0.029; under `C[C@H](CO)N1C[C@H](C)[C@@H](CN(C)S(=O)(=O)c2cccc(C#N)c2)OCc2cn(nn2)CCCC1=O`, 1.03 ± 0.11.
On the same count and under the same terms, the figure for `Cc1noc(C)c1NC(=O)Nc1ccc2c(c1)C(=O)N([C@H](C)CO)C[C@H](C)[C@@H](CN(C)Cc1ccc3c(c1)OCO3)OCCCC[C@@H](C)O2` is 1.12 ± 0.13; for `O=C(NCc1ccccc1F)[C@@H]1[C@@H](CO)[C@@H]2Cn3c(cccc3=O)[C@@H]2N1CC1CCCC1` it is 1.09 ± 0.057; for `CNC[C@@H]1Oc2c(NS(=O)(=O)c3ccc(Cl)cc3)cccc2C(=O)N([C@H](C)CO)C[C@@H]1C` it is 1.091 ± 0.0069.
